Here are results for 90 molecules from PubChem BioAssay AID463173 (ICCB-Longwood Screening Facility, Harvard Medical School, 2010).

About 4,300 (8.3%) of roughly 52,000 compounds were called active. Rule as the data show it: active = survival mostly below about 52% (no sharp cut-off); inactive = mostly above about 56%. The list shows a part of the results.

In this assay the test system is DeltatarO mutant. Put plainly: S. aureus survival, RN4220 and DeltatarO strains – OD600, teichoic acid synthesis inhibitors, primary screen (AID 463173). Conditions: S. aureus RN4220 wild type/DeltatarO growth, OD600, 18 h, stronger effect = lower value, screened at 18.75 µg/mL (by protocol).
Take `COc1cccc(N2CCN(C(=O)c3cccc(-n4c(C)nc5cccnc54)c3)CC2)c1`: the survival is inactive: 80%.

For the molecule `O=S(=O)(Nc1ccc(Br)cc1F)c1ccc2nc(-c3ccccc3)[nH]c2c1`, the survival was inactive: 72%.

On to `Cc1cc(N2CC34C=CC(O3)C(C(=O)O)C4C2=O)no1` (stereo not given), for which the survival was inactive: 95%.

Take `O=S(=O)(NCC(c1cccs1)S(=O)(=O)c1ccccc1)c1ccc(F)cc1` (stereo not given): the survival was active: 46%.

With `CCOc1ccccc1CNC(=O)c1cc(-c2ccc(Cl)s2)nc2ccccc12`, the survival was inactive: 77%.

Consider `CCOC(=O)c1ccc(NC(=O)C2CCN(S(=O)(=O)c3ccc4c(c3)CCCC(=O)N4)CC2)cc1`, for which the survival was inactive: 80%.

Turning to `CCc1ccc(NC(=O)Cn2c(=O)n(CCC(=O)N3CCc4ccccc4C3)c(=O)c3ccccc32)cc1`, the survival is inactive: 108%.

In the case of `Cc1ccccc1-c1nn2c(=O)cc(CN3CCN(C(=O)/C=C/c4ccccc4)CC3)nc2s1`, the survival was inactive: 116%.

Take `COc1cccc(Cn2c(CNS(=O)(=O)c3ccc(F)c(Cl)c3)nc3cccnc32)c1`: the survival is inactive: 134%.

For the molecule `O=C(COc1ccccc1)NCCc1csc(-c2ccc(Cl)cc2)n1`, the survival is inactive: 94%.

`O=C(c1ccc2c(c1)OCCO2)N(Cc1cccnc1)c1nc2c(Cl)cccc2s1`: the survival is inactive: 117%.

In the case of `CCOc1ccc(OCC)c(NC(=O)C2CCN(S(=O)(=O)c3c(C)noc3/C=C/c3ccccc3F)CC2)c1`, the survival is inactive: 80%.

On to `CC(C)COc1ccc(C(=O)Nc2cc3nn(-c4ccccc4)nc3cc2Cl)cc1`, for which the survival is inactive: 74%.

As to `CCc1nn2c(=O)cc(COc3ccc(/C=C(\C#N)C(=O)Nc4ccc(F)cc4)cc3OC)nc2s1`, the survival is inactive: 106%.

Take `CC(C)C(=O)NCC(c1ccc2c(c1)OCO2)N1CCN(c2ccccc2F)CC1` (stereo not given): the survival was inactive: 74%.

With `O=C(NCc1ccccc1)c1ccco1`, the survival was inactive: 92%.

On to `COc1ccccc1C(=O)Nc1ccc2oc(-c3cccc(Cl)c3Cl)nc2c1`, for which the survival is inactive: 79%.

As to `CCOC(=O)c1ccc(N2C(=O)c3n[nH]c(C)c3C2c2cccc(Br)c2)cc1` (stereo not given), the survival is active: 8%.

As to `COc1ccc(C(=O)c2cn(Cc3ccccc3F)c3cc4c(cc3c2=O)OCO4)cc1`, the survival was inactive: 82%.

Take `O=c1cc(-c2ccccc2)n2c(SCc3ccc(Cl)cc3)nnc2[nH]1`: the survival is inactive: 78%.

`Cc1ccc(CNC(=O)c2nc(SCc3ccccc3F)ncc2Cl)cc1`: the survival is inactive: 76%.

In the case of `CCOC(=O)c1ccccc1NC(=O)CSc1nc2ccncc2[nH]1`, the survival is inactive: 85%.

As for `O=C(NCc1ccco1)c1ccc(Cn2c(SCc3ccc(F)cc3)nc3cccnc32)cc1`, the survival is inactive: 92%.

For `Cc1ccc2nc(N3CCC(C(=O)N4CCN(c5cccc(C)c5C)CC4)CC3)[nH]c2c1`, the survival was inactive: 87%.

Take `Cc1sc2c(c1C)c(=O)n(-c1ccc(Cl)cc1)c(=O)n2Cc1cc(=O)n2ccccc2n1`: the survival was inactive: 80%.

On to `CC1CCCN(C(=O)c2cc3c(=O)n(C)c4ccccc4c3s2)C1` (stereo not given), for which the survival is inactive: 138%.

Take `COc1ccc(C2C(C(N)=O)=C(C)Nc3nc(SCc4ccccc4Cl)nn32)cc1OC` (stereo not given): the survival was inactive: 173%.

As for `CCOc1ccc(C(=O)NCc2nc3cccnc3n2Cc2ccc(F)cc2)cc1OCC`, the survival was inactive: 54%.

`Cc1ccc(C2CCN(C(=O)c3cnn(-c4cccc(Cl)c4)c3C3CCN(C(=O)OC(C)(C)C)CC3)C2)cc1` (stereo not given): the survival is inactive: 84%.

As to `O=C(COc1ccccc1)NCc1ccc2c(c1)CCN2C(=O)c1ccc(Cl)cc1`, the survival was inactive: 71%.

On to `COc1ccc(NC(=O)N(CCC(C)C)C(C)c2cccs2)c(OC)c1` (stereo not given), for which the survival was inactive: 90%.

As to `COc1ccc(OC)c(NC(=O)c2cc(-c3ccc(Cl)s3)nc3ccccc23)c1`, the survival is inactive: 72%.

For `CCC(=O)Nc1cc(-c2cccc(C)c2)nn1-c1ccccc1`, the survival was inactive: 83%.

`Cc1cccc(-c2nc(SCC(=O)N3CCc4ccccc43)c3c(=O)n(C)c(=O)n(C)c3n2)c1`: the survival is inactive: 88%.

As for `COc1ccc(N2CCN(Cc3nc4c(c(=O)[nH]c(=O)n4C)n3Cc3ccc(Cl)cc3)CC2)cc1`, the survival is inactive: 102%.

`CC(=O)Nc1cc(C(C)C)c(O)c(C(C)C)c1`: the survival is inactive: 95%.

Consider `CCOC(=O)CNc1nc(Oc2ccc(=O)n(C)n2)nc(N(CC)CC)n1`, for which the survival is inactive: 77%.

As for `Cc1nc2cc(C(=O)O)ccc2n1C`, the survival is inactive: 67%.

Take `CCOc1ccc(-n2c(SCC(=O)N3CCc4ccccc43)nc3c([nH]c4ccccc43)c2=O)cc1`: the survival is inactive: 69%.

As to `Cc1cccc(-c2nnc(SCc3cc(=O)c4cccc(Cl)c4[nH]3)n2C)c1`, the survival was inactive: 90%.

`COc1cccc2c1ncc1c(-c3ccc(C)cc3)nn(-c3cccc([N+](=O)[O-])c3)c12`: the survival was inactive: 87%.

With `CCCN(Cc1cccs1)C(=O)Nc1ccc(OCC)cc1`, the survival was inactive: 67%.

As for `COc1ccc(NC(=O)Cn2c(=O)c(-c3cc(C)ccc3NC(C)=O)nc3ccccc32)c(OC)c1`, the survival was inactive: 94%.

As for `Cc1cc(C)cc(NC(=O)C(=O)NCC(c2ccc3c(c2)OCO3)N2CCN(C)CC2)c1` (stereo not given), the survival is inactive: 76%.

Turning to `COc1ccc(-n2ncc3c(NC(C)(C)CO)ncnc32)cc1`, the survival was inactive: 75%.

Turning to `Cc1ccc(CSc2nnc(-c3ccncc3)n2CC2CCCO2)cc1` (stereo not given), the survival is inactive: 54%.

Turning to `CCOc1ccc(NC(=O)Cn2c3ncccc3c(=O)n2-c2ccc(CC)cc2)cc1`, the survival is inactive: 85%.

For `CCN(CC)S(=O)(=O)c1ccc(NC(=O)NCc2noc3ccc(C)cc23)cc1`, the survival was inactive: 87%.

`Cc1nc2cccnc2n1C1CCN(S(C)(=O)=O)CC1`: the survival is inactive: 80%.

For `CC1(C)Cc2ccccc2-c2nc3n(c(=O)c21)CCCS3`, the survival was inactive: 76%.

For `Cc1cc(S(=O)(=O)C(CNC(=O)c2ccc(OC(C)C)cc2)c2cccs2)ccc1F` (stereo not given), the survival is inactive: 80%.

As for `COc1ccccc1CNC(=O)CCc1c(C)nn(-c2ccc(N3CCOCC3)nn2)c1C`, the survival is inactive: 80%.

Take `COc1ccc(NC(=O)CSc2nc3c([nH]c4ccccc43)c(=O)n2-c2ccccc2)c(OC)c1`: the survival is inactive: 102%.

For the molecule `O=C(NCc1ccco1)c1ccc2c(c1)N(Cc1ccccc1)C(=O)c1ccccc1S2(=O)=O`, the survival was inactive: 68%.

Turning to `O=C(CSc1nc(O)cc(=O)[nH]1)c1ccc(O)cc1O`, the survival is inactive: 75%.

Turning to `COCCNc1ncnc2c1c(-c1ccccc1)cn2-c1ccc(C)c(Cl)c1`, the survival was inactive: 81%.

`O=C(NCc1ccc(F)cc1)c1ccc2c(c1)N(Cc1ccc(F)cc1Cl)C(=O)CS2`: the survival was inactive: 57%.

Regarding `CCCSc1ncc(Cl)c(C(=O)Nc2ccc(OC)cc2OC)n1`, the survival is active: 46%.

For `COc1cccc(CNC(=O)CCn2ccc3cc(S(=O)(=O)N4CCCC4)ccc32)c1`, the survival was inactive: 94%.

Turning to `Cc1ccc(CN2C(=O)SC(Nc3ccccc3)C2=O)cc1` (stereo not given), the survival was active: 40%.

For `O=C(NCCn1cc(SCc2ccc(C(F)(F)F)cc2)c2ccccc21)c1ccccc1F`, the survival is active: 36%.

Consider `CC(C)CCSc1nc2c(c(=O)n(C)c(=O)n2C)n1Cc1ccccc1Cl`, for which the survival is active: 34%.

For `COc1ccc(NC(=O)CCc2nc3cccnc3n2Cc2cccs2)c(OC)c1`, the survival was inactive: 71%.

Take `CCOC(=O)c1ccc(NC(=O)Nc2cccc(OCc3cc(=O)n4ccc(C)cc4n3)c2)cc1`: the survival is inactive: 68%.

`CC(C)(C)n1nnnc1CN1CCC(NC(=O)Nc2ccc(F)cc2)CC1`: the survival is inactive: 102%.

With `CCN1CCN(CCC(=O)Nc2ccc(C)cc2)CC1`, the survival was inactive: 100%.

Take `CCCCOc1ccc(NC(=O)CSc2ccc(C(=O)O)cn2)cc1`: the survival was inactive: 63%.

On to `Cc1cc(N2CCN(c3ccccc3F)CC2)n2cnnc2n1`, for which the survival is inactive: 76%.

For the molecule `O=C(CSc1nnc(-c2ccccc2)c(-c2ccccc2)n1)Nc1ccccc1Cl`, the survival was inactive: 75%.

With `CCCOc1ccc(C(=O)Nc2cc3nn(-c4ccc(CC)cc4)nc3cc2C)cc1`, the survival is inactive: 70%.

Turning to `COc1cc(NC(=O)CCN2CCOCC2)cc(OC)c1`, the survival was inactive: 110%.

Consider `COc1ccccc1OCCCn1c(-c2ccc(Cl)cc2)nc2ccccc2c1=O`, for which the survival is active: 29%.

Turning to `CCC(C)Cn1c(COc2ccc(OC)cc2)nc2ccccc21` (stereo not given), the survival is active: -1%.

In the case of `COc1ccc(NC(=O)Nc2nnc(SCC(=O)Nc3cccc(C)c3C)s2)cc1`, the survival is inactive: 89%.

On to `CCn1cnc2c(=O)oc3ccc(S(=O)(=O)N4CCN(c5cc(C)ccc5C)CC4)cc3c21`, for which the survival is inactive: 98%.

As to `CN(C)S(=O)(=O)c1ccc(S(=O)(=O)N2CC=C(c3ccc(F)cc3)CC2)cc1`, the survival is inactive: 80%.

In the case of `COc1ccc(C2=C(C)C(=O)N(Cc3ccc(C(=O)NCc4ccccc4C)cc3)S2(=O)=O)cc1`, the survival was inactive: 84%.

With `COc1ccc(CCn2nnnc2CN2CCN(Cc3ccccc3)CC2)cc1OC`, the survival was inactive: 82%.

For `CCOc1ccc(NC(=O)CCn2c(-c3ccc(F)cc3)cc(C(C)=O)c2C)cc1`, the survival was inactive: 80%.

As to `Cc1cccc(OCC(=O)OCc2cc(=O)n3nc(C4CC4)sc3n2)c1`, the survival is inactive: 87%.

In the case of `CCN1C(=O)/C(=c2/s/c(=C3\SC(C)=C(C)N3CC)c(=O)n2CC)N(C)C1=S`, the survival is inactive: 89%.

`CCOC(=O)Cc1c(C)nc2c(-c3ccc(OC)c(OC)c3)c(C)nn2c1C`: the survival was inactive: 82%.

As for `CCC(O)(CCN1CCCCC1)c1ccccc1` (stereo not given), the survival was inactive: 80%.

Regarding `COc1ccc(-c2cc(C(=O)Nc3ccc(C#N)cc3)no2)cc1`, the survival is inactive: 46%.

With `Cc1cccc(C(=O)Nc2nnc(S(=O)(=O)N3CCC(C)CC3)s2)c1`, the survival was active: 35%.

With `CCOC(=O)CC(NC(=O)c1cc2cc(OC)ccc2oc1=O)c1ccc(OC)cc1` (stereo not given), the survival is inactive: 74%.

Take `O=C(CCC(=O)N1CC2CCCN2c2ccccc21)NCc1ccccc1F` (stereo not given): the survival was inactive: 131%.

With `CC1Cc2ccccc2N1C(=O)CSc1nc(N)cc(N)n1` (stereo not given), the survival is inactive: 71%.

With `COc1ccc(/C=C/c2nc(-c3ccccc3O)n(-c3ccccc3)n2)cc1OC`, the survival is active: 13%.

In the case of `Cc1cc(C)cc(OC(=O)c2cc(-c3ccc4c(c3)OCCO4)on2)c1`, the survival is active: -2%.
